# PubChem BioAssay AID1345083 (National Center for Advancing Translational Sciences (NCATS), 2018)
# The whole screen tested about 94,000 compounds, of which about 6,200 (6.6%) were called active. Inconclusive results, whose numbers are uncertain, are shown with a selection of clear calls. The call rests on the fitted dose curve; in most records, active means well fitted inhibition curve with a large enough effect; inconclusive means small, poorly fitted or top-dose-only effect; inactive means flat fitted curve, though single readings scatter. A potency beside an inconclusive call is a rough fit, not a confirmed value.
# Test: Cytotoxic Profiling in HEK 293 Cell Line of Diverse Libraries Using Quantitative High-Throughput Screening; further: nearly all actives have a fitted effect of over 60% in size
# Details: HEK 293 viability, ATP luminescence (CellTiter-Glo), 48-72 h; series mostly up to 115 µM
# Outline: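 HEK 293 seeded at 250 cells/well receive compound via pintool. After 48 or 72 hr at 37 degree Celsius, 5% CO2 and 95% humidity, CellTiter-Glo is dispensed and luminescence read following 10 min at room temperature.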
# Potency means the concentration at half of the fitted maximal effect; tags describe the fitted curve by direction and shape.
row,SMILES,Potency
1,O=C1N(c2ccccc2)c2ccccc2C12CCN([S+](=O)([O-])c1ccccc1)C2 (stereo unspecified),"inconclusive: 25.1 µM [inhibitor, full curve]"
2,Cc1ccc([S+](=O)([O-])N2CCc3nc(-c4ccc(Cl)cc4)nc(-c4ccccc4)c3C2)cc1,"inconclusive: 56.2 µM [inhibitor, partial curve, poor fit]"
3,Cc1cc(CNC(=O)c2cc(-c3ccccc3C)cc3c2OCCN3C)no1,"inconclusive: 112 µM [inhibitor, partial curve]"
4,Cc1ccccc1C(=O)N1CCN(c2nc3ncccc3o2)CC1,inactive
5,Cc1ccncc1C(=O)N1CCC(N2C(=O)C3(CCCC3)C2c2ccccc2)CC1 (stereo unspecified),inactive
6,CC(C)CC(=O)N1CCC2(CC1)CC(N(Cc1ccc(F)cc1)C1CC1)CCO2 (stereo unspecified),"inconclusive: 44.7 µM [inhibitor, partial curve, poor fit]"
7,COc1cc(C)c2c(c1C)C[C@H](C(C)C(=O)N1CCSCC1)CC2 (stereo partly specified),"inconclusive: 56.2 µM [inhibitor, full curve, poor fit]"
8,CCNC(=O)N1CC(N(CC)C2CCOCC2)C1,"inconclusive: 89.1 µM [inhibitor, single point]"
9,Cc1c[nH]c(CN2CCCC(CCc3ccc(F)cc3F)C2)c(C)c1=O (stereo unspecified),"inconclusive: 8.91 µM [inhibitor, full curve, poor fit]"
10,CCn1cc(CN(C)C(=O)c2ccc3c(c2)C(O)CCCCCN3CCOC)c(C)n1 (stereo unspecified),"inconclusive: 89.1 µM [inhibitor, single point]"
11,Cc1cccc(C(=O)NCc2nnc3c(-c4nc(C(C)C)no4)cccn23)c1,inactive
12,COC(=O)c1ccc(NC(=O)Cn2nc3c(cc2=O)CN(C(C)=O)CC3)cc1,"inconclusive: 89.1 µM [inhibitor, single point]"
13,Cc1cc(C)c(CNC(=O)c2nc(-c3cccc(F)c3)cc3c2ccn3C(C)C)c(=O)[nH]1,active: 31.6 µM
14,O=C1CC(c2ccccc2)N(S(=O)(=O)c2ccc3c(c2)CCC3)CCCCCN1 (stereo unspecified),inactive
15,O=C(Cn1nc2c(cc1=O)CCCCC2)Nc1nc(-c2cccnc2)cs1,"inconclusive: 79.4 µM [inhibitor, single point]"
16,CC(C)CN1C(=O)c2ccccc2C(C(=O)Nc2nncs2)C12CCCCC2 (stereo unspecified),inactive
17,CN1CCC(N2CC3(CCC2=O)CCN(C(=O)c2ccccn2)CC3)C1 (stereo unspecified),"inconclusive: 25.1 µM [inhibitor, full curve]"
18,COCCCNc1nc2c([S+](=O)([O-])c3cccnc3)nnn2c2ccccc12,"inconclusive: 79.4 µM [inhibitor, partial curve, poor fit]"
19,COCC1CN(S(=O)(=O)Cc2ccc(C)c(C)c2)CC12CCNCC2 (stereo unspecified),inactive
20,CCCCN1C(=O)C2(CCN(C(=O)CC(C)(C)C)CC2)Nc2ccccc21,"inconclusive: 50.1 µM [inhibitor, partial curve, poor fit]"
21,COc1cccc(C(=O)N2CCCC(C(=O)N3CCCC(c4nc5ccncc5[nH]4)C3)C2)c1 (stereo unspecified),inactive
22,Cc1noc(-c2ccc3c(c2)OCO3)c1C(=O)NCCC(c1ccccc1)c1ccccc1,active: 22.4 µM

row,SMILES,Potency
1,COc1ccc(C(=O)N2CCC3(CC2)NC(=O)N(Cc2ccccc2Cl)C3=O)cc1,"inconclusive: 89.1 µM [inhibitor, single point]"
2,COc1cccc(C(=O)NC2CCN(c3cc(-c4ccccc4)[nH]n3)C2)c1 (stereo unspecified),"inconclusive: 22.4 µM [inhibitor, full curve]"
3,Cc1ncoc1C(=O)N1CCC(N2C(=O)C3(CCCCC3)C2c2ccccc2)CC1 (stereo unspecified),"inconclusive: 100 µM [inhibitor, single point]"
4,COc1ccc(CCNC(=O)c2ccc3nc(-c4ccccn4)oc3c2)cc1,"inconclusive: 50.1 µM [inhibitor, partial curve, poor fit]"
5,CN(Cc1cccnc1)C(=O)CC(c1ccccc1)c1ccc(Cl)cc1 (stereo unspecified),"inconclusive: 50.1 µM [inhibitor, partial curve, poor fit]"
6,COc1ccc(-c2cnc3n2CC(C(=O)NCCNC(C)=O)CC3)cc1 (stereo unspecified),inactive
7,CCC(=O)Nc1ccc(C2(C(=O)O)CCCCC2)cc1,inactive
8,Cc1ccc(NC(=O)c2cn3cc(-c4ccc(F)cc4)sc3n2)cc1,inactive
9,Cc1ccc(-c2noc([C@@H]3C[C@H](NC(=O)Nc4cccc(F)c4)CN3C)n2)cc1,active: 63.1 µM
10,COc1ccc(NC(=O)CCC2CCCN(C(=O)c3ccccc3SC)C2)cc1Cl (stereo unspecified),"inconclusive: 17.8 µM [inhibitor, partial curve, poor fit]"
11,CS(=O)(=O)N(Cc1cccnc1)C1CN(C(=O)c2[nH]nc3c2CCc2ccccc2-3)C1,"inconclusive: 89.1 µM [inhibitor, single point]"
12,Cc1ccc(C(=O)NCc2nnc3cc(-c4nc(C5CC5)no4)ccn23)cc1C,"inconclusive: 39.8 µM [inhibitor, partial curve, poor fit]"
13,COc1ccc(C2(C(=O)N3CCCCCCNC(=O)[C@@H]4CCCC[C@@H]43)CC2)cc1,"inconclusive: 79.4 µM [inhibitor, partial curve, poor fit]"
14,COc1ccc(Nc2cc(-c3ccccc3OC)nc3c(C)noc23)cc1OC,"inconclusive: 89.1 µM [inhibitor, partial curve, poor fit]"
15,COc1ccc(NC(=O)C2(C)CCCc3cnc(N(C)C)nc32)cn1 (stereo unspecified),"inconclusive: 100 µM [inhibitor, partial curve, poor fit]"
16,COc1ccc(CN2CC3(CCN(S(=O)(=O)c4ccc(F)cc4)CC3)C2=O)cc1,active: 89.1 µM
17,Cc1cc(-c2cc3c(cn2)CN(Cc2ccccn2)CCN3)ccn1,"inconclusive: 112 µM [inhibitor, partial curve, poor fit]"
18,O=C(c1cc(-c2cc(Cl)cc(Cl)c2)c2cccn2n1)N1CCN(Cc2ccccc2)CC1,"inconclusive: 63.1 µM [inhibitor, partial curve, poor fit]"
19,CCc1noc(-c2cn(C3CCN(C(=O)c4ccc5c(c4)OCO5)C3)nn2)n1 (stereo unspecified),"inconclusive: 35.5 µM [inhibitor, full curve]"
20,CC1Oc2ccc(NC(=O)c3ccc(Cl)c(Cl)c3)cc2CN(Cc2ccccc2F)C1=O (stereo unspecified),"inconclusive: 25.1 µM [inhibitor, partial curve]"
21,Cc1ccc(-c2cc(C(=O)NCCc3ccc(Cl)cc3)c3cnn(C)c3n2)c(C)c1,"inconclusive: 89.1 µM [inhibitor, single point]"
22,Cn1cc(-c2ccccc2)cc1C(=O)NCc1cccs1,"inconclusive: 39.8 µM [inhibitor, single point]"

row,SMILES,Potency
1,COCCOC1CCN(S(=O)(=O)Cc2ccccc2)CC1,inactive
2,COc1ccccc1-c1cccc(C(=O)N2CCC[C@H]2C(=O)NCc2ccccc2)c1,"inconclusive: 56.2 µM [inhibitor, partial curve, poor fit]"
3,COc1cccc(-c2cccc(CN3CCCC3C(=O)NCc3ccc(Cl)cc3)c2)c1 (stereo unspecified),active: 39.8 µM
4,CC(=O)N1CCC(C2CCN(S(=O)(=O)c3cccc(Cl)c3)C2)CC1 (stereo unspecified),"inconclusive: 35.5 µM [inhibitor, partial curve, poor fit]"
5,O=C([C@@H]1C[C@H](F)CN1C(=O)c1ccoc1)N1CCCCC1,inactive
6,CNC(=O)c1cc(C2CC2)nc2c1c(C1CCN(C(=O)Cc3ccc(F)cc3)CC1)nn2C,"inconclusive: 89.1 µM [inhibitor, single point]"
7,CCn1ncc(N2CCC(NC(=O)c3ccc4c(c3)OCO4)CC2)cc1=O,"inconclusive: 89.1 µM [inhibitor, single point]"
8,CCN1CCC(CCNC(=O)C2N(C(C)C)C(=O)C23CCCCC3)CC1 (stereo unspecified),inactive
9,CC(=O)NCCNC[C@@H]1C=C(C)[C@H](Cc2nnc(-c3cncn3C)o2)C[C@H]1C(C)C,inactive
10,O=C(c1ccc(F)cc1)N1CCCC(c2noc(COc3ccccc3)n2)C1 (stereo unspecified),"inconclusive: 89.1 µM [inhibitor, single point]"
11,CC1(CNc2ccccc2)COc2ccc(C(=O)NCCc3ccccn3)cc2N1 (stereo unspecified),active: 100 µM
12,O=C(CC1CCCC1)N1CCOc2ccc(CN3CCCCC3)cc2C1,inactive
13,Cc1nn(-c2ccccn2)c(C)c1[C@@H]1C=C[C@@H](NC(=O)C2CCCCC2)C1,"inconclusive: 112 µM [inhibitor, partial curve, poor fit]"
14,O=C(Cc1ccc(F)cc1)N(CC1CCN(Cc2ccccc2F)CC1)CC1CCCO1 (stereo unspecified),"inconclusive: 89.1 µM [inhibitor, single point]"
15,CCCn1c(C)cnc1CCNC(=O)CCC1CCCC1,inactive
16,O=C(NCCCN1CCOCC1)c1cccc2c1CCN2C(=O)Nc1ccc(F)cc1,inactive
17,O=C1N(Cc2ccc(F)cc2)C[C@H]2CN(Cc3ccc(C(F)(F)F)cc3)CCN12,"inconclusive: 35.5 µM [inhibitor, partial curve, poor fit]"
18,COc1ccc(-c2cccc(C(=O)N3CCC(NC(=O)c4ccc(Cl)nc4)CC3)c2)nn1,"inconclusive: 79.4 µM [inhibitor, single point]"
19,CCC(=O)NC1CCN(C(=O)N2CC3CC(C2)[C@H]2CCCC(=O)N2C3)CC1 (stereo partly specified),inactive
20,COCc1cc(CC2(NCc3ccccc3)COC2)no1,inactive
21,CC(C)c1ccc(-c2nc(C3CC(=O)N(c4ccc(F)cc4)C3)no2)cc1 (stereo unspecified),active: 35.5 µM
22,O=C(C1CCCC1)N1CC2(CCCN2CC2CC2)Cc2ccccc21 (stereo unspecified),"inconclusive: 70.8 µM [inhibitor, partial curve, poor fit]"
